Laboratory results published in the supplement of paper PMC12217912.
The list shows a part of the results. Sequences were assembled here from the parent chain. Inactive controls read about 0.05.

B1: TEV protease; numbered along this chain (parent)
chain: MGESLFKGPRDYNPISSSICHLTNESDGHTTSLYGIGFGPFIITNKHLFRRNNGTLVVQSLHGVFKVKDTTTLQQHLVDGRDMIIIRMPKDFPPFPQKLKFREPQREERICLVTTNFQTKSMSSMVSDTSCTFPSGDGIFWKHWIQTKDGQCGSPLVSTRDGFIVGIHSASNFTNTNNYFTSVPKNFMELLTNQEAQQWVSGWRLNADSVLWGGHKVFMVKPEEPFQPVKEATQL

Variants of: B1
Assay: raw area under fraction-flipped curve 0-4 h after induction (AUC4h, not background-subtracted), DNA-recorder readout of cleavage of the substrate (dimensionless); higher = more cleavage of the substrate by the protease variant
Settings: temperature: 34 °C; time window: 0-4 h after rhamnose induction
Protocol: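 In vivo DNA recorder in E. coli TOP10(DE3) ΔrhaA at 34 °C. Each TEVp single-site mutant (parent TEVp 0) is paired with a single-site variant of the 7-mer TEVs (canonical ENLYFQ|S). The substrate sits between flexible linkers in a Bxb1-sfGFP-TEVs-SsrA fusion, so cleavage stabilises Bxb1 and speeds flipping of a recombination array, read by NGS. The value is the raw area under the fraction-flipped curve over 0-4 h after rhamnose induction (AUC4h), with ≥20 reads per time point. It is not background-subtracted; inactive controls average about 0.047.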
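Further: Bxb1 expression induced with 0.2% (w/v) L-rhamnose at OD600 near 0.5, cultures sampled hourly, flipped fraction per protease–substrate barcode pair counted by paired-end Illumina sequencing.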

## I110Y
  area with substrate CNLYFQS: 0.233
  area with substrate FNLYFQS: 0.0629
  area with substrate HNLYFQS: 0.0632
  area with substrate INLYFQS: 0.0649
  area with substrate NNLYFQS: 0.0746
  area with substrate TNLYFQS: 0.0589

## Y179F
  area with substrate CNLYFQS: 0.0603
  area with substrate FNLYFQS: 0.0669
  area with substrate GNLYFQS: 0.0648
  area with substrate LNLYFQS: 0.0676
  area with substrate TNLYFQS: 0.0325
  area with substrate YNLYFQS: 0.0736

## R106V
  area with substrate CNLYFQS: 0.0603
  area with substrate HNLYFQS: 0.0625
  area with substrate PNLYFQS: 0.0699
  area with substrate SNLYFQS: 0.0954
  area with substrate TNLYFQS: 0.0581
  area with substrate VNLYFQS: 0.0317
  area with substrate WNLYFQS: 0.0707
  area with substrate YNLYFQS: 0.0593

## G162I
  area with substrate CNLYFQS: 0.0563
  area with substrate HNLYFQS: 0.0583
  area with substrate INLYFQS: 0.0444
  area with substrate PNLYFQS: 0.0563
  area with substrate SNLYFQS: 0.0465
  area with substrate YNLYFQS: 0.0525

## Q198M
  area with substrate CNLYFQS: 0.0852
  area with substrate FNLYFQS: 0.059
  area with substrate HNLYFQS: 0.0512
  area with substrate INLYFQS: 0.0601
  area with substrate KNLYFQS: 0.06
  area with substrate LNLYFQS: 0.0496
  area with substrate MNLYFQS: 0.0587
  area with substrate NNLYFQS: 0.0497
  area with substrate PNLYFQS: 0.0686
  area with substrate SNLYFQS: 0.0612
  area with substrate TNLYFQS: 0.0695
  area with substrate YNLYFQS: 0.0604

## L77Q
  area with substrate CNLYFQS: 0.0736
  area with substrate FNLYFQS: 0.0558
  area with substrate HNLYFQS: 0.0561
  area with substrate INLYFQS: 0.0554
  area with substrate KNLYFQS: 0.0637
  area with substrate LNLYFQS: 0.0659
  area with substrate PNLYFQS: 0.0765
  area with substrate SNLYFQS: 0.0671
  area with substrate TNLYFQS: 0.0625
  area with substrate VNLYFQS: 0.0554
  area with substrate YNLYFQS: 0.0591

## K98D
  area with substrate CNLYFQS: 0.0758
  area with substrate FNLYFQS: 0.0817
  area with substrate HNLYFQS: 0.0672
  area with substrate INLYFQS: 0.0617
  area with substrate KNLYFQS: 0.0619
  area with substrate LNLYFQS: 0.0607
  area with substrate MNLYFQS: 0.0602
  area with substrate NNLYFQS: 0.072
  area with substrate PNLYFQS: 0.0766
  area with substrate QNLYFQS: 0.0749
  area with substrate RNLYFQS: 0.0616
  area with substrate TNLYFQS: 0.0716
  area with substrate WNLYFQS: 0.0499
  area with substrate YNLYFQS: 0.062

## I167C
  area with substrate CNLYFQS: 0.0598
  area with substrate INLYFQS: 0.054
  area with substrate NNLYFQS: 0.065
  area with substrate PNLYFQS: 0.06
  area with substrate SNLYFQS: 0.0662
  area with substrate TNLYFQS: 0.0431
  area with substrate WNLYFQS: 0.0605

## I86S
  area with substrate CNLYFQS: 0.0544
  area with substrate FNLYFQS: 0.0401
  area with substrate GNLYFQS: 0.0134
  area with substrate HNLYFQS: 0.0434
  area with substrate INLYFQS: 0.0255
  area with substrate KNLYFQS: 0.0767
  area with substrate MNLYFQS: 0.0356
  area with substrate PNLYFQS: 0.0519
  area with substrate RNLYFQS: 0.0507
  area with substrate SNLYFQS: 0.0566
  area with substrate VNLYFQS: 0.0561
  area with substrate WNLYFQS: 0.0454
  area with substrate YNLYFQS: 0.0446

## S182I
  area with substrate CNLYFQS: 0.0441
  area with substrate GNLYFQS: 0.0593
  area with substrate HNLYFQS: 0.0591
  area with substrate MNLYFQS: 0.0625
  area with substrate NNLYFQS: 0.0757
  area with substrate PNLYFQS: 0.0675
  area with substrate RNLYFQS: 0.078
  area with substrate TNLYFQS: 0.0557
  area with substrate WNLYFQS: 0.0544
  area with substrate YNLYFQS: 0.0578

## V183Q
  area with substrate CNLYFQS: 0.0476
  area with substrate HNLYFQS: 0.0661
  area with substrate KNLYFQS: 0.0894
  area with substrate LNLYFQS: 0.0536
  area with substrate RNLYFQS: 0.0599
  area with substrate WNLYFQS: 0.0491

## S169E
  area with substrate CNLYFQS: 0.0593
  area with substrate FNLYFQS: 0.0512
  area with substrate GNLYFQS: 0.053
  area with substrate HNLYFQS: 0.063
  area with substrate INLYFQS: 0.0565
  area with substrate MNLYFQS: 0.0704
  area with substrate WNLYFQS: 0.0678

## T129G
  area with substrate CNLYFQS: 0.0675
  area with substrate PNLYFQS: 0.0693

## Q118P
  area with substrate CNLYFQS: 0.0787
  area with substrate FNLYFQS: 0.077
  area with substrate HNLYFQS: 0.0416
  area with substrate LNLYFQS: 0.0707
  area with substrate NNLYFQS: 0.0735
  area with substrate PNLYFQS: 0.0623
  area with substrate TNLYFQS: 0.0649
  area with substrate WNLYFQS: 0.0758

## Q118K
  area with substrate CNLYFQS: 0.104
  area with substrate GNLYFQS: 0.0816
  area with substrate INLYFQS: 0.0895
  area with substrate MNLYFQS: 0.0672
  area with substrate PNLYFQS: 0.0584
  area with substrate RNLYFQS: 0.0663
  area with substrate SNLYFQS: 0.0661
  area with substrate WNLYFQS: 0.067

## E224G
  area with substrate CNLYFQS: 0.0603
  area with substrate HNLYFQS: 0.0728
  area with substrate KNLYFQS: 0.0787
  area with substrate LNLYFQS: 0.0458
  area with substrate NNLYFQS: 0.0692
  area with substrate PNLYFQS: 0.072
  area with substrate SNLYFQS: 0.0753
  area with substrate TNLYFQS: 0.0653
  area with substrate WNLYFQS: 0.0457

## L205T
  area with substrate CNLYFQS: 0.0317
  area with substrate MNLYFQS: 0.0614
  area with substrate VNLYFQS: 0.0421

## L205K
  area with substrate CNLYFQS: 0.0779
  area with substrate GNLYFQS: 0.0629
  area with substrate HNLYFQS: 0.0701
  area with substrate LNLYFQS: 0.0613
  area with substrate MNLYFQS: 0.0807
  area with substrate SNLYFQS: 0.0747
  area with substrate YNLYFQS: 0.067

## N178E
  area with substrate CNLYFQS: 0.0496
  area with substrate HNLYFQS: 0.05
  area with substrate LNLYFQS: 0.0579
  area with substrate PNLYFQS: 0.0382
  area with substrate TNLYFQS: 0.0546
  area with substrate WNLYFQS: 0.0564

## Q146W
  area with substrate CNLYFQS: 0.0696
  area with substrate HNLYFQS: 0.0531
  area with substrate INLYFQS: 0.0556
  area with substrate LNLYFQS: 0.0814
  area with substrate MNLYFQS: 0.113
  area with substrate TNLYFQS: 0.114
  area with substrate WNLYFQS: 0.0627
  area with substrate YNLYFQS: 0.0317
